# This is one part of the list. Values were computed here from the reads of four pooled replicates and scatter widely.
# Molecular target: T1, Pho4 (S. cerevisiae) (UniProt P07270)
# T1 sequence: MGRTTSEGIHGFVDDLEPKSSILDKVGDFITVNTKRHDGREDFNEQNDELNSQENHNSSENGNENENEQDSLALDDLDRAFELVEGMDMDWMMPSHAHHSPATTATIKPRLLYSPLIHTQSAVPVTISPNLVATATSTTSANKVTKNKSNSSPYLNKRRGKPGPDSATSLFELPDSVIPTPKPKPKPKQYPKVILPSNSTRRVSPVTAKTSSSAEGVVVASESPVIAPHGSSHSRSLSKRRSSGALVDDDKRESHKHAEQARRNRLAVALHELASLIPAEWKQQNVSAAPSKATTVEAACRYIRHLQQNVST
# Assay: relative binding free energy (BET-seq); higher = weaker binding
# Settings: reference: library average
row,Sequence,relative binding free energy [kJ/mol]
1,TGGAACACGTGATTGT,0.628
2,TTGGGCACGTGAGTAC,0.0837
3,GGGAGCACGTGTTACG,0.126
4,ACTTGCACGTGATATG,0.586
5,TTTGACACGTGGTGGC,-0.251
6,TGATACACGTGTTGCG,0.126
7,GTCTGCACGTGTTTGT,-0.126
8,GGCAACACGTGGGGTT,-0.418
9,AGAGGCACGTGTGCAG,-0.377
10,ATGGGCACGTGTGGTC,-0.544
11,ATTCGCACGTGGGGGA,-0.251
12,GAGGACACGTGTAGGG,0.502
13,GGGTTCACGTGGGTCA,0.795
14,AGGGACACGTGGAATG,-0.167
15,CGCGTCACGTGGGGAG,-0.335
16,GACATCACGTGTAGGG,0.46
17,GTCGACACGTGGGTCG,-0.46
18,TATGTCACGTGATATC,0.962
19,TCTGACACGTGAATGG,1.59
20,TTATGCACGTGGCAAG,-0.46
21,ATTGGCACGTGGTTCT,-1.3
22,GTTGTCACGTGGGTGG,0.377
23,AATTACACGTGTATTT,-0.0837
24,GTTGTCACGTGAATAG,1.38
25,GATATCACGTGATGGT,1.3

row,Sequence,relative binding free energy [kJ/mol]
1,ACGGCCACGTGGTGTG,-0.502
2,TAATTCACGTGTCCGG,2.01
3,AGGGCCACGTGAGCGG,0.544
4,TCGTGCACGTGCGTGC,0.126
5,TGGGACACGTGTAGTG,0.837
6,TATTGCACGTGGTCAA,-0.544
7,CGGTGCACGTGTTGTA,-0.669
8,AGCGGCACGTGTCTTG,0.0837
9,GAGGGCACGTGAGGAG,0.335
10,CCGGGCACGTGGTATG,-0.46
11,TGATGCACGTGGTATC,-0.418
12,TGATACACGTGAATGG,1.42
13,TGCCACACGTGGGTTG,-0.209
14,GGTTTCACGTGAAGCG,1.3
15,GAGTGCACGTGTGGTT,0.293
16,TACAGCACGTGTGTTT,-0.669
17,CATTTCACGTGGGGGG,0.92
18,ACGGACACGTGATGTG,0.544
19,GTTACCACGTGTGGAT,1.05
20,GTGTGCACGTGTAGCA,-0.0837
21,ATATGCACGTGTTACG,-0.126
22,AAGCGCACGTGTTGTT,-0.418
23,TTGGCCACGTGGTTGA,-0.377
24,TGGCTCACGTGTAAAT,1.55
25,ACTTTCACGTGGTGGA,0.669

row,Sequence,relative binding free energy [kJ/mol]
1,TCAGTCACGTGATTGT,0.879
2,CTTATCACGTGCGGTT,0.377
3,TGAGCCACGTGAGGTT,0.753
4,TTGTGCACGTGGAGGG,0.209
5,GATAGCACGTGGAGGG,-0.0837
6,ATTTACACGTGTGCAA,1.51
7,TGGTACACGTGATGTT,0.92
8,TTGTGCACGTGCGACG,0.209
9,TTGGACACGTGGCGTA,0.0418
10,GATTGCACGTGCGGTA,0.167
11,ATTTGCACGTGGTAAT,-0.293
12,AGGGTCACGTGTTTTT,0.669
13,CGTCTCACGTGAGGGG,1.13
14,GGTAACACGTGAAGAG,1.05
15,GGTGTCACGTGGGGCC,-0.167
16,TGGTCCACGTGGTTGC,-0.502
17,TGTTGCACGTGTGCGT,-0.335
18,TAGTGCACGTGTGGTA,-0.209
19,ACTTGCACGTGAGGTT,1.09
20,TCTGGCACGTGGGGCT,-1.34
21,GTGAACACGTGGGGCG,-0.251
22,GAGAGCACGTGTAGTT,-0.418
23,GCGAGCACGTGGTTTT,-0.293
24,ATGGGCACGTGCGTGT,-0.628
25,GGGGGCACGTGTCCGT,-1

row,Sequence,relative binding free energy [kJ/mol]
1,CGTCGCACGTGGCGGG,-1.59
2,ATGTTCACGTGAAGGA,2.01
3,TAGAGCACGTGAGAGT,0.753
4,GGGGTCACGTGGCATT,0.418
5,GGGGGCACGTGCAGAA,-0.711
6,GTGGACACGTGTAGTT,0.586
7,AATGCCACGTGGTGAG,-0.711
8,TTCTACACGTGATAGG,1
9,TTTAACACGTGGGTAC,-0.251
10,GGTGCCACGTGTTAGG,0.126
11,TGGTTCACGTGGGACC,0.586
12,TTGTTCACGTGAATTC,1.42
13,TAGGTCACGTGTGTTG,0.669
14,AAAGACACGTGTAGTT,0.335
15,TGGAGCACGTGTGTAG,-0.167
16,CGTGTCACGTGTGTTG,0.251
17,TGAGTCACGTGTATAT,0.502
18,CGGGACACGTGGTTTG,-0.377
19,TATGTCACGTGCGTCG,-0.167
20,AGGAGCACGTGGGTGT,-1.13
21,TGGAACACGTGGTTGG,-0.167
22,AGGTACACGTGTAGAG,1
23,GGGTTCACGTGCTTTA,0.879
24,AGTCGCACGTGGGTCT,-0.711
25,CTTCGCACGTGTTGTG,-0.251

row,Sequence,relative binding free energy [kJ/mol]
1,ATGGACACGTGGGTTA,-0.586
2,GATAACACGTGTAGTA,0.753
3,TGGTGCACGTGGGGTA,-0.753
4,TTGTACACGTGGCGTC,-0.0837
5,TGAGACACGTGAATGG,1.38
6,GAGGTCACGTGAAGTG,1.17
7,ACGTGCACGTGGTTTT,-0.293
8,TTGGACACGTGCAGCG,0.126
9,TTTCGCACGTGCATTT,0.126
10,ATTTTCACGTGTTGGT,1.34
11,TGTGGCACGTGAGAAG,0.753
12,TTTAACACGTGTTAAG,0.669
13,TTCTACACGTGGTTAT,0.126
14,CGTATCACGTGGATGT,0.251
15,TGCTGCACGTGCGGGA,-0.46
16,AGGTTCACGTGCTTGG,0.837
17,GTATTCACGTGACAGG,1.38
18,GCTTGCACGTGGCGGT,-0.209
19,GATGACACGTGTTCGT,0.586
20,TGGGGCACGTGTATGT,-0.126
21,TATGTCACGTGTTTCG,0.418
22,TTTATCACGTGCAGTG,0.669
23,AGTTGCACGTGACTTT,0.795
24,TTGTACACGTGGGTAG,-0.126
25,AGGGACACGTGTTGTC,0.167

row,Sequence,relative binding free energy [kJ/mol]
1,ATGGCCACGTGAAGGG,0.251
2,AGAGACACGTGCGAGG,0.46
3,ATTGTCACGTGTGGCT,0.251
4,TGGGGCACGTGGCGGC,-1.17
5,GTATGCACGTGAGTAA,0.753
6,TGGGTCACGTGCGTGT,0.293
7,AGGGGCACGTGGAGTC,-0.711
8,TGTGTCACGTGGTATA,-0.586
9,TGTAACACGTGTCGGG,0.377
10,AGTTGCACGTGGGAGA,0.167
11,TGTTTCACGTGGCAAA,1.51
12,GATGCCACGTGGGGTC,-0.586
13,GGAGGCACGTGGTATT,0.126
14,TATTGCACGTGGGATG,0.0418
15,GGTGACACGTGCGTGG,0
16,TGAGGCACGTGTCAAT,0
17,AGGTGCACGTGGAAAA,0.293
18,AGTTCCACGTGCGTTG,0.586
19,ATTGTCACGTGCAGGC,0.837
20,TTTGGCACGTGTGGTG,0.0837
21,TTCGACACGTGGGGGC,-0.0418

# Source: the BET-seq Pho4 binding data (Le et al. 2018)
